# Laboratory results published in PubChem BioAssay AID485344 (National Center for Advancing Translational Sciences (NCATS), 2010).
# In all, about 340,000 compounds went through this assay and about 6,900 (2%) were called active. No stated cut-off is given here; in the data, active means inhibition above about 30%; inactive means below that, where a call was filed. This is a selection; strong and weak results do not stand in their true shares. The source gives no active or inactive call for entries shown without one.
# Target: D(2) dopamine receptor (Homo sapiens) (UniProt P14416)
# Experiment: HTS Assay for Allosteric Antagonists of the Human D2 Dopamine Receptor: Primary Screen for Antagonists; further: 0% is about no effect
# Conditions: HEK293 TREx D2 cells, calcium flux, dopamine EC80; at 10 µM; stronger effect = higher value
# In short: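 Tetracycline-induced HEK293 TREx cells expressing D2 receptor forced-coupled to calcium signalling, loaded with no-wash calcium dye. Compounds added and calcium flux read 180 s, then dopamine added at EC80 and read a further 180 s.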
# UniProt P14416, sequence (P14416 whole entry, looked up): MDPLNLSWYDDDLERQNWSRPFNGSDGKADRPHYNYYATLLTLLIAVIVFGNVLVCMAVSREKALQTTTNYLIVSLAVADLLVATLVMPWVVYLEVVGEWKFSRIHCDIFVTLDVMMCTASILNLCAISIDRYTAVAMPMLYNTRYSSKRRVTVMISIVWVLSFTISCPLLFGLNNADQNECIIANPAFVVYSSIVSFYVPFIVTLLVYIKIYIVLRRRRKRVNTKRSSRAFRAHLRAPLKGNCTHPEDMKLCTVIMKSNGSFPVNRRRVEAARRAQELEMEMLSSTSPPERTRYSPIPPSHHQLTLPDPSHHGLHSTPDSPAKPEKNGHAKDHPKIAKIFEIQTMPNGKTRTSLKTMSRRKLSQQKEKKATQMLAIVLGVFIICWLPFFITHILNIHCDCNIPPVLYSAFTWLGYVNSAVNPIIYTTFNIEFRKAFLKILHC
row,SMILES,inhibition
1,CCOc1ccc(C2c3c(-c4ccc(C)cc4)n[nH]c3C(=O)N2c2ccc(Cl)cc2)cc1 (stereo not given),7.16%
2,CC1CCCN(C(=O)Cn2c(=O)oc3cc(S(=O)(=O)N4CCCCC4)ccc32)C1 (stereo not given),10.4%
3,O=C(Nc1ccc(-c2cc(C(F)(F)F)nn2-c2ccccc2)cc1)c1cccc(F)c1,-2.56%
4,CCOC(=O)c1c(NC(=O)c2cc(CC)on2)sc(C)c1C,-7.47%
5,CCN(CC)c1ccc(C(=O)NCc2ccc3c(c2)CCN3C(=O)c2ccccc2)cc1,-12.9%
6,CCN1CCC(N(Cc2cccc(OC)c2)C(=O)Nc2cccc(C(F)(F)F)c2)CC1,-14.3%
7,Brc1ccccc1-n1ncc2c1ncn1nc(Cc3ccccc3)nc21,17%
8,O=c1cc(CSc2ncn[nH]2)[nH]c2c(Cl)cccc12,-2.27%
9,Cc1ccc2c(c1)N(C(=O)CCC(=O)Nc1ccccc1Cl)CC(C)O2 (stereo not given),2.21%
10,COc1ccc(CNC(=O)CN(c2ccc(C)cc2)S(=O)(=O)c2c(C)n[nH]c2C)cc1,4.55%
11,COc1ccc2oc(=O)c(-c3csc(/C(C#N)=C/c4ccc(F)cc4)n3)cc2c1,-3.58%
12,COc1ccc(CNC(=O)c2cc3c(-c4ccccc4F)nn(C)c3s2)c(OC)c1,3.76%
13,COc1ccccc1N1CCN(C(=O)C2CCN(S(=O)(=O)c3cnc[nH]3)CC2)CC1,-9.65%
14,CCOc1ccc(NC(=O)Cn2c(=O)n(-c3ccc(C)cc3)c(=O)c3cc(OC)c(OC)cc32)cc1,1.93%
15,Cc1ccc(/C=C(\C#N)C(=O)Nc2cc(C)ccc2C)cc1,20.8%
16,COc1cccc(NC(=O)Cn2cc(C(=O)C3CCCCC3)c3ccccc32)c1,13%
17,CCOC(=O)c1c(NC(C)=O)c2c3c(sc2n1Cc1nc(-c2ccccc2OCC)oc1C)CCCC3,-1.08%
18,COc1cccc(CNC(=O)CN2C(=O)N(c3cc(C)ccc3C)S(=O)(=O)c3ccccc32)c1OC,12.9%
19,Cc1ccc(C)c(CN2C(=O)c3ccccc3S(=O)c3ccc(C(=O)NCc4ccccc4Cl)cc32)c1 (stereo not given),0.375%
20,COc1cc(C)c(Cl)cc1S(=O)(=O)NCCc1c(C)[nH]c2ccccc12,-6.19%
21,Cc1cccc(NC(=O)NCCn2c(=O)oc3ccc(C)cc32)c1,-12.5%
22,COc1cccc(NC(=O)c2sc3nc(N4CCOCC4)c4c(c3c2N)CC(C)(C)OC4)c1,-12.5%
23,Cc1oc2c(c1C(=O)NCc1cccc(Br)c1)C1=NCCN1C=N2,-18.5%
24,COc1ccccc1/C=C/C(=O)NCC(=O)N/N=C/c1cc(Br)ccc1OC,active: 64.2%

row,SMILES,inhibition
1,CCOC(=O)Cn1c(=O)n(CC2CCCO2)c2nc(-c3ccc(OC)cc3OC)nc(C(N)=O)c21 (stereo not given),-9.97%
2,Cc1ccc(CNC(=O)CCCn2c(=O)c3ccccc3n(CC(=O)C(C)(C)C)c2=O)cc1,6.74%
3,Cc1nnc(N2CCN(C(=O)Nc3cc(F)ccc3F)CC2)c2nn(-c3ccc(Cl)cc3)c(C)c12,-1.14%
4,CC(=O)Nc1ccc(NCc2nnc3n2CCCCC3)cc1,-6.88%
5,CCOC(=O)c1cc2c(=O)n3ccccc3nc2n(CC(C)C)c1=NC(=O)C(C)Oc1ccccc1 (stereo not given),-20.1%
6,CCOc1ccc(NC(=O)CCS(=O)(=O)c2cc3c4c(c2)CCN4C(=O)CC3)cc1,8.47%
7,CCc1ccccc1NC(=O)CCc1c(C)nc2cc(-c3ccccc3)nn2c1C,12.7%
8,COc1ccc(-c2nsc(NC(=O)c3ccccc3Br)n2)cc1,-22.7%
9,COc1cc(NC(=O)C2CCCN(S(=O)(=O)c3cn(C)cn3)C2)cc(OC)c1 (stereo not given),15.9%
10,CC(CN1CCOCC1)OC(=O)c1ccc(C(C)(C)C)cc1 (stereo not given),active: 70.8%
11,CC(=O)N1CCc2c(sc3c2c(=O)n(CCc2ccccc2)c(=O)n3Cc2ccc(F)cc2)C1,-6.78%
12,Cc1c(Cl)cccc1NC(=O)CSc1nc(=O)n(CCN2CCOCC2)c2c1CCC2,-18.4%
13,Cc1ccccc1NC(=O)Cn1c(=O)n(CCCCCC(=O)NCc2ccc3c(c2)OCO3)c(=O)c2sccc21,1.03%
14,CCOc1ccc(NC(=O)c2sc3nc(-c4ccc(OC)cc4)cn3c2C)cc1,-12.3%
15,COc1ccc(-n2ccn(CC(=O)Nc3ccccc3C(F)(F)F)c(=O)c2=O)cc1OC,20.6%
16,CCc1ccc(-n2c(CCC(=O)O)ccc2-c2cccs2)cc1,-10.3%
17,O=C(Cn1c(=O)c2cccn2c2ccc(F)cc21)NCc1cccc(Cl)c1,-19.7%
18,CC(C)N(Cc1ccccc1)S(=O)(=O)c1ccc(N2CCCCS2(=O)=O)cc1,-0.0815%
19,CCOC(=O)C1(Cc2ccccc2C(F)(F)F)CCN(C2CCSC2)CC1 (stereo not given),active: 49.9%
20,Cc1cc2nn(-c3ccccc3)nc2cc1NC(=O)Cc1ccc(Cl)cc1,-1.79%
21,S=C(NCc1ccc(Cl)cc1)NC1CCN(Cc2ccccc2)CC1,active: 70.8%
22,CN(C)S(=O)(=O)c1ccc(C(=O)N(Cc2cccnc2)c2nc3c(F)cc(F)cc3s2)cc1,-7.41%
23,CCOc1ccc(CCNC(=O)CSCc2nc(-c3cccc(C)c3)oc2C)cc1OCC,-3.51%
24,CN(C)S(=O)(=O)N1CCC(N2CCN(Cc3ccc(F)cc3)C(=O)C2=O)CC1,-4.11%

row,SMILES,inhibition
1,CC1CCN(C(=O)Cn2c(=O)n(-c3ccc(Cl)cc3)c(=O)c3c4c(sc32)CCC4)CC1,-8.57%
2,CCOc1ccc2nc(NC(=O)c3nc(SC(C)C)ncc3Cl)sc2c1,-8.37%
3,CCc1cccc2c(-c3ccccc3)nc(SCC(=O)Nc3ccc(OC)cc3)nc12,22.7%
4,O=C(Nc1ccc(F)c(Cl)c1)C1CCCN(S(=O)(=O)c2cccc3nsnc23)C1 (stereo not given),-12.9%
5,Nc1nonc1-c1nc2ccccc2n1CC(=O)Nc1ccccc1C(=O)O,5.15%
6,COc1ccc(NC(=S)N(CCCN2CCOCC2)C(C)c2cc3cccc(OC)c3o2)cc1 (stereo not given),active: 35.2%
7,CCOc1ccccc1N(CC)C(=O)c1ccc2c(=O)n3c(nc2c1)CCCCC3,17.2%
8,CC(C)NC(=O)CCSc1nc(-c2ccc3c(c2)OCO3)cc(C(F)(F)F)n1,1.58%
9,c1ccc(Cc2cc[n+](Cc3ccccn3)cc2)cc1,active: 42%
10,Cc1cccc(C)c1NC(=O)CSc1nc(-c2cccs2)cc(C(F)(F)F)n1,-5.79%
11,Cc1cn2c(=O)cc(COc3ccc(C(C)(C)C)cc3)nc2s1,1.13%
12,CCOc1ccccc1NC(=O)NCc1ccccc1,active: 42.2%
13,CCOC(=O)c1c(C)[nH]c(N=Nc2cccc(C)c2)c1C,active: 32.7%
14,CN(Cc1ccccc1)C(=O)CSc1c2c(nc3ccc(Cl)cc13)CCCC2,-1.19%
15,Cc1ccc(-c2c(CN3CCN(c4cccc(C)c4C)CC3)csc2C)cc1,-28.2%
16,COc1ccc(NC(=O)NCCCN2CCN(c3ccccc3F)CC2)cc1,active: 91.5%
17,COc1ccc(-n2nc(C(=O)NCCc3ccc(Cl)cc3)c3c4ccccc4n(C)c3c2=O)cc1,8.33%
18,COc1ccc(C2c3c(-c4ccccc4)n[nH]c3C(=O)N2c2ccc(C(=O)O)cc2)c(OC)c1 (stereo not given),10.7%
19,CC(Sc1nccn1C)C(=O)Nc1ccc(Cl)cn1 (stereo not given),active: 48.9%
20,COc1cc(NC(=O)Cn2c(-c3ccccc3)cc(C(C)=O)c2C)cc(OC)c1,13.4%
21,Cc1ccc(-c2cnc(C3CC3)o2)cc1S(=O)(=O)Nc1cccc(C#N)c1,13.4%
22,COC(=O)c1ccc2c(c1)sc(=NC(=O)c1ccc(S(=O)(=O)N3CCCCC3)cc1)n2C,-7.33%
23,COc1ccc(NC(=O)CCS(=O)(=O)c2cc3c(cc2C)NC(=O)CO3)cc1Cl,11.1%
24,CCCc1cnc2c(c1SCC(=O)Nc1ccc([N+](=O)[O-])cc1)c(=O)n(C)c(=O)n2C,-6.94%

row,SMILES,inhibition
1,Cc1ccc(Cl)cc1NC(=O)c1sc2nc(C)c(C)c(C)c2c1N,21.7%
2,CCOC(=O)c1ccccc1NC(=O)N(Cc1ccc(CC)cc1)Cc1cn[nH]c1-c1ccc(OC)cc1,-0.249%
3,Cc1cccc(NC(=O)c2cccc(N3CCCS3(=O)=O)c2)c1,4.01%
4,O=C(COc1ccc(F)cc1)Nc1ccc(OCc2cc(=O)n3ccsc3n2)cc1,-21.1%
5,Cc1ccc(CNC(=O)CN2Cc3ccccc3C2=O)cc1,-5.27%
6,Cc1ccccc1NC(=O)Cn1c(=O)n(CCC(=O)N2CCc3ccccc3C2)c(=O)c2ccccc21,-13.4%
7,CCC1CN(C(=O)N2CCC(C(=O)NCCCc3ccccc3)CC2)c2cc(C)ccc2O1 (stereo not given),-2.81%
8,COc1ccc(OCC(=O)N/N=C(/C)Cc2ccccc2)cc1,active: 31.6%
9,COc1ccc(NS(=O)(=O)c2cc(-c3onc(C)c3C)ccc2C)c(OC)c1,0.895%
10,Cc1cccc(C)c1NC(=O)CCSc1nc(-c2ccc3c(c2)OCO3)cc(C(F)(F)F)n1,-0.419%
11,CCCC12CN3CC(CCC)(CN(C1)C3c1ccc(OCc3ccccc3)cc1)C2=O (stereo not given),-4.4%
12,CCOC(=O)c1[nH]c2c(c1-c1ccccc1)C(=O)CC(c1ccccc1)C2 (stereo not given),active: 30.8%
13,Cc1ccc(Nc2ccc(N3CCN(C(=O)c4cccc([N+](=O)[O-])c4)CC3)nn2)cc1,-4.15%
14,COc1ccccc1NC(=O)CN(C)S(=O)(=O)c1cccc2cccnc12,-6.02%
15,O=C(CSc1ncc2c(n1)-c1ccccc1N(Cc1ccc(Cl)cc1)S2(=O)=O)c1ccc(Cl)cc1,0.615%
16,CC(C)(C)NC(=O)C1c2ccccc2Oc2ccccc21,active: 46.7%
17,COc1ccc(CNC(=O)CN(C(=O)c2snc(C(N)=O)c2N)c2ccc(OC)c(OC)c2)cc1,active: 31.5%
18,CCOC(=O)c1ccc(NC(=O)CN2C(=O)C(C)(C)c3ccccc32)cc1,3.35%
19,Cc1ccc(C)c(NC(=O)c2cnn(-c3ccc(F)cc3F)c2C2CCNCC2)c1,-18.3%
20,CCN(C(=O)c1sc2nc3n(c(=O)c2c1C)CCCC3)c1ccccc1F,16.9%
21,CC(=O)c1ccc(NC(=O)CSc2nnc3ccc(-c4ccc(F)cc4)nn23)cc1,-21%
22,COc1cc(C2C(C#N)=C(N)Oc3n[nH]c(-c4cccnc4)c32)ccc1OCC(N)=O (stereo not given),active: 30.2%
23,Cc1ccc(CCNC(=O)c2cc(-c3ccccc3)n[nH]2)cc1,17.2%
